Results as given in article PMC5892938.
Some of the results follow. At the low end of the ranking the order means little.

biological target: GST-SBP-SLBP (stem-loop binding protein) (UniProt Q14493); test: targeted RNA Bind-n-Seq; conditions: RBNS binding buffer: 25 mM Tris pH 7.5, 150 mM KCl, 3 mM MgCl2, 0.1% Tween, 0.5 mg/mL BSA, 1 mM DTT; 27 nM protein, 750 pM RNA pool; temperature not stated; high values mean tight binding;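 note: DESeq read counts versus GST-SBP nonspecific binding control pulldown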

Row | Sequence | binding signal (log2 fold change)
1 | GGUCACGUCUCAAUCAACUCUAUUUCCAGGGAAAGCCCUGGCAUACUCAACAGCUCGCAGUCAAG | -0.192
2 | GGUCACGUCUCAAUCAACUCUAUCGCAGGAGUUUUCUCCUGGUAUUUCAACAGCUCGCAGUCAAG | 0.126
3 | GGUCACGUCUCAAUCAACUCUUUCCCAGGAGUUUCCUCCUGUAAUCUCAACAGCUCGCAGUCAAG | -0.0201
4 | GGUCACGUCUCAAUCAACUCAAUCCCCAGGGAAAGCCCUGGCUUAUUCAACAGCUCGCAGUCAAG | 0.295
5 | GGUCACGUCUCAAUCAACUCAUUCUCCAGGGAAAGCCCUGGCAUAUUCAACAGCUCGCAGUCAAG | 0.258
6 | GGUCACGUCUCAAUCAACUCUACUUCCAGGGAAAUCCCUGGCAUACUCAACAGCUCGCAGUCAAG | -0.175
7 | GGUCACGUCUCAAUCAACUCAAUCCCAGGAGUUUUCUCCUGCUAAUUCAACAGCUCGCAGUCAAG | -0.113
8 | GGUCACGUCUCAAUCAACUCUUCCUCAGGAGUUUUCUCCUGUUAUGUCAACAGCUCGCAGUCAAG | 0.129
9 | GGUCACGUCUCAAUCAACUCAUUUCCCAGGGAAAUCCCUGGCUUACUCAACAGCUCGCAGUCAAG | 0.0367
10 | GGUCACGUCUCAAUCAACUCACACGAGGGGGGGAAAACCCCUUUACCCUCUUUCUCAACAGCUCGCAGUCAAG | 0.044
11 | GGUCACGUCUCAAUCAACUCAUCGCCAGGAGUUUUCUCCUGCUAUUUCAACAGCUCGCAGUCAAG | 0.109
12 | GGUCACGUCUCAAUCAACUCAUCCUCCAGGGAAAACCCUGGUUUACUCAACAGCUCGCAGUCAAG | -0.11
13 | GGUCACGUCUCAAUCAACUCUCUAGAGGGGGGGAAAACCCCUUUGCCCUCCGUUUCAACAGCUCGCAGUCAAG | 0.354
14 | GGUCACGUCUCAAUCAACUCAUUUUCAGGAGUUUUCUCCUGCAAUCUCAACAGCUCGCAGUCAAG | -0.134
15 | GGUCACGUCUCAAUCAACUCAGUUCCAGGAGUUUUCUCCUGCAUUCUCAACAGCUCGCAGUCAAG | 0.167
16 | GGUCACGUCUCAAUCAACUCUCACGAGGGGGGGAAAACCCCUUUACCCUCAUUCUCAACAGCUCGCAGUCAAG | 0.0045
17 | GGUCACGUCUCAAUCAACUCUAUCCCAGGAGUUUCCUCCUGCAAAUUCAACAGCUCGCAGUCAAG | 0.253
18 | GGUCACGUCUCAAUCAACUCCCAAGAGGGGGGGAAAACCCCUUUGCCCUCAUCUUCAACAGCUCGCAGUCAAG | -0.256
19 | GGUCACGUCUCAAUCAACUCAUUCUCAGGAGUUUGCUCCUGUUUACUCAACAGCUCGCAGUCAAG | 0.269
20 | GGUCACGUCUCAAUCAACUCAAUCCCCAGGGAAAGCCCUGGCUUUCUCAACAGCUCGCAGUCAAG | 0.072
21 | GGUCACGUCUCAAUCAACUCUCACGAGGGGGGGAAAACCCCUUUACCCUCAUCCUCAACAGCUCGCAGUCAAG | -0.248
22 | GGUCACGUCUCAAUCAACUCAUUUCCAGGAGUUUUCUCCUGUUAUCUCAACAGCUCGCAGUCAAG | -0.056
23 | GGUCACGUCUCAAUCAACUCUACGCCAGGAGUUUUCUCCUGUAUACUCAACAGCUCGCAGUCAAG | -0.0539
24 | GGUCACGUCUCAAUCAACUCUACUUCCAGGGAAAGCCCUGGUUAAUUCAACAGCUCGCAGUCAAG | 0.143
25 | GGUCACGUCUCAAUCAACUCUAGUCCAGGAGUUUUCUCCUGCUUUUUCAACAGCUCGCAGUCAAG | -0.122

Row | Sequence | binding signal (log2 fold change)
26 | GGUCACGUCUCAAUCAACUCUUCCGCAGGAGUUUCCUCCUGGUAUUUCAACAGCUCGCAGUCAAG | -0.226
27 | GGUCACGUCUCAAUCAACUCUAUUUCAGGAGUUUGCUCCUGCAUAUUCAACAGCUCGCAGUCAAG | -0.071
28 | GGUCACGUCUCAAUCAACUCUAAAGAGGGGGGGAAAACCCCUUUACCCUCCAUUUCAACAGCUCGCAGUCAAG | -0.542
29 | GGUCACGUCUCAAUCAACUCAUUUUCAGGAGUUUACUCCUGCUAUUUCAACAGCUCGCAGUCAAG | 0.0716
30 | GGUCACGUCUCAAUCAACUCUAACGAGGGGGGGAAAACCCCUUUACCCUCAUCAUCAACAGCUCGCAGUCAAG | 0.21
31 | GGUCACGUCUCAAUCAACUCUUUCUCAGGAGUUUUCUCCUGCAAUUUCAACAGCUCGCAGUCAAG | -0.0272
32 | GGUCACGUCUCAAUCAACUCAUCUUCCAGGGAAAGCCCUGGUAAACUCAACAGCUCGCAGUCAAG | -0.0582
33 | GGUCACGUCUCAAUCAACUCCUACGAGGGGGGGAAAACCCCUUUACCCUCUCCAUCAACAGCUCGCAGUCAAG | -0.649
34 | GGUCACGUCUCAAUCAACUCCUUAGAGGGGGGGAAAACCCCUUUACCCUCCUUAUCAACAGCUCGCAGUCAAG | 0.0877
35 | GGUCACGUCUCAAUCAACUCAGUUUCAGGAGUUUUCUCCUGUAUAUUCAACAGCUCGCAGUCAAG | 0.147
36 | GGUCACGUCUCAAUCAACUCUUUCUCAGGAGUUUACUCCUGUUUACUCAACAGCUCGCAGUCAAG | 0.0933
37 | GGUCACGUCUCAAUCAACUCUUCGUCAGGAGUUUACUCCUGUUUUUUCAACAGCUCGCAGUCAAG | -0.168
38 | GGUCACGUCUCAAUCAACUCAAUUCCCAGGGAAAACCCUGGCAUAGUCAACAGCUCGCAGUCAAG | -0.229
39 | GGUCACGUCUCAAUCAACUCAUCCGAGGGGGGGAAAACCCCUUUACCCUCAAUCUCAACAGCUCGCAGUCAAG | -0.352
40 | GGUCACGUCUCAAUCAACUCUUCGCCCAGGGAAAACCCUGGUAUUCUCAACAGCUCGCAGUCAAG | -0.0128
41 | GGUCACGUCUCAAUCAACUCUAUAGAGGGGGGGAAAACCCCUUUACCCUCCAUAUCAACAGCUCGCAGUCAAG | 0.00458
42 | GGUCACGUCUCAAUCAACUCAGUCCCCAGGGAAAACCCUGGCAUAUUCAACAGCUCGCAGUCAAG | -0.271
43 | GGUCACGUCUCAAUCAACUCCUCAGAGGGGGGGAAAACCCCUUUACCCUCCACGUCAACAGCUCGCAGUCAAG | -0.271
44 | GGUCACGUCUCAAUCAACUCUACGCCAGGAGUUUCCUCCUGUAAUUUCAACAGCUCGCAGUCAAG | -0.0618
45 | GGUCACGUCUCAAUCAACUCAUCUCCCAGGGAAAUCCCUGGCAUUUUCAACAGCUCGCAGUCAAG | 0.0525
46 | GGUCACGUCUCAAUCAACUCUUCUCCCAGGGAAAGCCCUGGCAUACUCAACAGCUCGCAGUCAAG | -0.089
47 | GGUCACGUCUCAAUCAACUCUACGGAGGGGGGGAAAACCCCUUUACCCUCAAAUUCAACAGCUCGCAGUCAAG | 0.0974
48 | GGUCACGUCUCAAUCAACUCUUAGGAGGGGGGGAAAACCCCUUUACCCUCAUCGUCAACAGCUCGCAGUCAAG | 0.158
49 | GGUCACGUCUCAAUCAACUCUAUAGAGGGGGGGAAAACCCCUUUACCCUCACACUCAACAGCUCGCAGUCAAG | -0.0726
50 | GGUCACGUCUCAAUCAACUCUAUCUCCAGGGAAAGCCCUGGCUUAUUCAACAGCUCGCAGUCAAG | -0.182

Row | Sequence | binding signal (log2 fold change)
51 | GGUCACGUCUCAAUCAACUCAGUCUCAGGAGUUUCCUCCUGCAAAUUCAACAGCUCGCAGUCAAG | 0.0522
52 | GGUCACGUCUCAAUCAACUCUAUCGAGGGGGGGAAAACCCCUUUGCCCUCAAAUUCAACAGCUCGCAGUCAAG | -0.175
53 | GGUCACGUCUCAAUCAACUCUUCCUCCAGGGAAAACCCUGGCUAUCUCAACAGCUCGCAGUCAAG | 0.291
54 | GGUCACGUCUCAAUCAACUCAUCGUCAGGAGUUUGCUCCUGCUAAUUCAACAGCUCGCAGUCAAG | 0.112
55 | GGUCACGUCUCAAUCAACUCAUUCCCAGGAGUUUUCUCCUGCUUAUUCAACAGCUCGCAGUCAAG | 0.181
56 | GGUCACGUCUCAAUCAACUCAACUUCCAGGGAAAUCCCUGGUUAUUUCAACAGCUCGCAGUCAAG | 0.00375
57 | GGUCACGUCUCAAUCAACUCUUCUCCCAGGGAAACCCCUGGUAUUUUCAACAGCUCGCAGUCAAG | -0.0205
58 | GGUCACGUCUCAAUCAACUCAUUCUCAGGAGUUUACUCCUGCAAUUUCAACAGCUCGCAGUCAAG | 0.00951
59 | GGUCACGUCUCAAUCAACUCUUUCUCCAGGGAAAGCCCUGGUAUUUUCAACAGCUCGCAGUCAAG | -0.156
60 | GGUCACGUCUCAAUCAACUCAUUUUCAGGAGUUUACUCCUGCAAACUCAACAGCUCGCAGUCAAG | -0.0331
61 | GGUCACGUCUCAAUCAACUCUCACGAGGGGGGGAAAACCCCUUUACCCUCACUAUCAACAGCUCGCAGUCAAG | -0.311
62 | GGUCACGUCUCAAUCAACUCUAGUCCAGGAGUUUCCUCCUGCAUAUUCAACAGCUCGCAGUCAAG | -0.106
63 | GGUCACGUCUCAAUCAACUCAUUCGAGGGGGGGAAAACCCCUUUACCCUCUUUUUCAACAGCUCGCAGUCAAG | 0.219
64 | GGUCACGUCUCAAUCAACUCUUUCCCCAGGGAAAACCCUGGUUUUCUCAACAGCUCGCAGUCAAG | 0.0844
65 | GGUCACGUCUCAAUCAACUCUUCCUCCAGGGAAAGCCCUGGUAUAUUCAACAGCUCGCAGUCAAG | -0.239
66 | GGUCACGUCUCAAUCAACUCUAGUCCAGGAGUUUCCUCCUGCAAAUUCAACAGCUCGCAGUCAAG | 0.054
67 | GGUCACGUCUCAAUCAACUCAUCUCCCAGGGAAAGCCCUGGUUUUUUCAACAGCUCGCAGUCAAG | -0.0742
68 | GGUCACGUCUCAAUCAACUCAAAAGAGGGGGGGAAAACCCCUUUACCCUCAUUAUCAACAGCUCGCAGUCAAG | -0.185
69 | GGUCACGUCUCAAUCAACUCAGUCUCCAGGGAAAUCCCUGGUAUUUUCAACAGCUCGCAGUCAAG | 0.347
70 | GGUCACGUCUCAAUCAACUCUAUCCCCAGGGAAAUCCCUGGCUAACUCAACAGCUCGCAGUCAAG | -0.215
71 | GGUCACGUCUCAAUCAACUCAAUGUCCAGGGAAACCCCUGGUUUUUUCAACAGCUCGCAGUCAAG | -0.578
72 | GGUCACGUCUCAAUCAACUCCUCAGAGGGGGGGAAAACCCCUUUACCCUCAUCGUCAACAGCUCGCAGUCAAG | 0.186
73 | GGUCACGUCUCAAUCAACUCAUUCUCCAGGGAAAGCCCUGGCAAACUCAACAGCUCGCAGUCAAG | 0.0108
74 | GGUCACGUCUCAAUCAACUCAGUCCCCAGGGAAAUCCCUGGUAUUUUCAACAGCUCGCAGUCAAG | 0.13
